Experimental data: PubChem BioAssay AID1508623 (National Center for Advancing Translational Sciences (NCATS), 2021)
Out of some 48,000 compounds screened, about 450 (0.94%) were called active. Not shown: some 19% with an inconclusive outcome. Calls follow the shape of the dose curve; as a rule, active = well fitted inhibition curve with a large enough effect; inconclusive = small, poorly fitted or top-dose-only effect; inactive = no such curve, though single readings can be large or run the other way. The list shows a part of the results.

experiment: Primary qHTS for Identification of Small Molecule Inhibitors of Huntingtin Promoter Activity; settings: HEK293 HTT promoter firefly luciferase reporter (activity 0% = vehicle and -100% = no light), 24 h; series mostly up to 57.5 µM; activity change, negative = inhibition: at the top concentration; also: nearly all actives have a fitted effect of over 50% in size
In short: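 Firefly luciferase signal from promoter-reporter HEK293 cells was scaled between vehicle (0%) and zero RLU (-100%). Compounds were tested at final concentrations of up to 57.5 uM over 24 h at 37 degrees C. PTC124 at 50 uM final served as control inhibitor.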

Structure (SMILES) | activity change, negative = inhibition
Cc1ccc(C)c(N2CCN(c3nc4ccc(C)cc4nc3-n3nc(C)cc3C)CC2)c1 | inactive: -1.35%
O=C(Nc1ccccc1C(=O)OCc1cc(=O)n2nc(C3CC3)sc2n1)c1ccc(Cl)cc1 | inactive: 5.32%
O=C(Cn1cnc2nc3c(cc2c1=O)CCCC3)Nc1ccc(F)cc1Cl | inactive: -23%
CCOCCc1nnc(NC(=O)C(=O)c2cc(C)n(-c3ccc(C)c(C)c3)c2C)s1 | inactive: -14.7%
Cc1cc(C)n(CCC(=O)Nc2ccc(Cl)cc2)n1 | inactive: 3.96%
COc1ccccc1CNC(=O)CSc1nc(-c2ccc(OC)c(OC)c2)cc(C(F)(F)F)n1 | inactive: -0.121%
CCOc1ccc(CCNC(=O)c2ccc3c(c2)N(Cc2ccc(F)cc2)CCS3)cc1 | inactive: -33.6%
COC(=O)c1sccc1S(=O)(=O)N(CC(=O)Nc1cc(C)ccc1C)c1ccc(C)c(C)c1 | inactive: -24.1%
Cc1ccc(N2CC(NC(=O)c3ccc(S(=O)(=O)N(C)C)cc3)CC2=O)cc1C (centres undefined) | inactive: -28.6%
CCC(C)NC(=O)c1ccc2c(c1)sc1nc(-c3ccc(OC)cc3)cn12 (centres undefined) | inactive: 5.01%
O=C(CSc1nc2c([nH]c3ccccc32)c(=O)n1-c1cccc(Cl)c1)N1CCCC1 | inactive: -15.4%
CCc1ccc2oc(-c3ccc(C)c(NC(=O)c4cc([N+](=O)[O-])ccc4N4CCOCC4)c3)nc2c1 | inactive: -9.57%
CCCCc1ccc(-n2nc3ccc(NC(=O)c4cc5ccccc5o4)cc3n2)cc1 | inactive: 44.1%
COc1ccc(C(=O)NCCSc2c[nH]c3ccccc23)cc1OC | inactive: -21.2%
Clc1ccc(CSc2ccc(-c3cccs3)nn2)cc1 | inactive: 22.8%
CSc1ncc(C(=O)Nc2cc(C)cc(C)c2)c(-c2ccccc2)n1 | inactive: -10.4%
COc1ccc(-n2c(=O)c3c4c(sc3n(Cc3ccc(F)cc3)c2=O)CN(C(C)=O)CC4)c(OC)c1 | inactive: -14.5%
CC(=O)N1CCc2c(sc3c2c(=O)n(Cc2ccccc2)c(=O)n3Cc2ccc(Cl)cc2)C1 | inactive: 4.07%
Cc1cc(C)c(Cn2c(=O)n(CCC(=O)NCCc3ccccc3)c(=O)c3ccccc32)c(C)c1 | inactive: -5.58%
CN1CCN(C(CNC(=O)c2ccc(F)cc2)c2ccc3c(c2)OCO3)CC1 (centres undefined) | inactive: -2.19%
COc1ccc(OC)c(CCNC(=O)c2c(C)oc3ncn(CC(C)C)c(=O)c23)c1 | inactive: -18%
CCOCCCn1c(SCC(=O)Nc2ccccc2CC)nc2ccccc2c1=O | inactive: -21.4%
CCOC(=O)Cn1c(=O)oc2cc(S(=O)(=O)N3CCN(c4cccc(Cl)c4)CC3)ccc21 | inactive: -13.6%
O=C(O)c1sc(Nc2ccccc2)nc1-c1ccccc1 | inactive: -6.08%
Nc1ccc(C(=O)N2CC3CC(CN(Cc4ccccc4)C3)C2)cc1 | inactive: 0.139%

Structure (SMILES) | activity change, negative = inhibition
Cc1ccc(NC(=O)c2cccc3c(=O)c4c([nH]c23)CCCC4)c(C)c1 | inactive: -24.8%
CCN(CC)c1ccc(C(=O)N2CCc3c([nH]c4ccccc34)C2c2ccc(F)cc2)cc1 (centres undefined) | inactive: -11.6%
CCOC(=O)c1sc2ccccc2c1S(=O)(=O)Nc1ccc(OC)c(Cl)c1 | inactive: 0%
Cc1ccc(NC(=O)Nc2nnc(SCC(=O)N(C(C)C)C(C)C)s2)cc1 | inactive: -33.6%
CCCn1c(=N)c(C(=O)NCC2CCCO2)cc2c(=O)n3cc(C)ccc3nc21 (centres undefined) | inactive: -1.44%
Cc1cccc(-c2nc(SCc3cc(=O)c4c(C)cc(C)cc4[nH]3)n[nH]2)c1 | inactive: -24.7%
COCCN(CCOC)S(=O)(=O)c1ccc(C(=O)Nc2sc3c(c2C(N)=O)CCCC3)cc1 | inactive: -20.4%
O=C(Cn1ncc2c3ccccc3n(Cc3ccccc3)c2c1=O)NCCc1ccc(Cl)cc1 | inactive: -0.957%
COc1cccc(NC(=O)Cn2nc(N3CCN(c4ccccc4)CC3)ccc2=O)c1 | inactive: 1.59%
Cc1ccc(Cl)cc1-n1ncc2c(NCCc3ccccc3)ncnc21 | inactive: -14.2%
O=C(Cn1nc2c(cc1=O)CCCC2)NCc1ccc(Cl)cc1 | inactive: -24%
Cc1cccc(CSc2cn(CC(=O)N3CCOCC3)c3ccccc23)c1 | inactive: 64.2%
COc1ccc(C(=O)c2ccccc2O)c(O)c1 | inactive: 18.9%
CCN(C(=O)CN1C(=O)c2ccccc2Sc2ccc(C(=O)OC)cc21)c1cccc(C)c1 | inactive: 1.99%
CCC(=O)N1CCc2cc(S(=O)(=O)NC(Cc3ccccc3)C(=O)NCc3ccccc3)ccc21 (centres undefined) | inactive: -20.9%
Cc1ccc(OCC(=O)Nc2ccc(OCc3cc(=O)n4ccsc4n3)cc2)cc1C | inactive: 27.4%
CCCCNc1nc2c(S(=O)(=O)c3ccc(Br)cc3)nnn2c2ccsc12 | inactive: 2.29%
Cc1ccc(NC(=O)Cn2c(=O)n(Cc3nc(-c4ccccc4)no3)c(=O)c3ccccc32)c(C)c1 | inactive: -11.7%
Cc1ccc(Nc2c(-c3ccccn3)nc3ccc(Br)cn23)cc1 | inactive: -10.4%
Cc1ccc(C(=O)N(Cc2ccc(N(C)C)cc2)CC2CCCO2)cc1 (centres undefined) | inactive: -0.897%
Cc1nn(C(C)C(=O)NCc2ccc(OC(C)C)cc2)c(=O)c2c1sc1ccccc12 (centres undefined) | inactive: -35.3%
Cc1ccc2ccc3cc(C(=O)N4CCN(c5ccccc5F)CC4)nc3c2[nH]1 | inactive: -26.6%
CC(C)(C)NCC(O)COc1cccc2c1C[C@H](O)[C@H](O)C2 (some centres undefined) | inactive: 10.8%
CCCCNC(=O)CCC(=O)NNc1nc2ccccc2c2nc(C)nn12 | inactive: -4.89%
